# Source: the supplement of paper PMC7826260
# The list shows a part of the results. Each Rep nickase domain was tested in vitro on the same pool of single strands (3 µM enzyme, 1 h, 37 °C); shown is the middle of each 90-letter strand. Uncut reads are compared with the no-enzyme pool on a log2 scale; uncut sequences lie near 0, cut ones below; no hit call is given. The scaling is to total reads, so uncut sequences can rise above 0 when many others are cut.
# Experiments:
# Test in all cases: uncleaved DNA left, log2 of reads against the no-enzyme library (log2 ratio); higher = less cleavage (more negative = more Rep cleavage of the k-mer); sequences stand for … in CTCGTCCG…ACCGGAGA
# [1] = system: T1, Rep nickase domain of Muscovy duck circovirus
# T1 sequence (protein, residues 1-111, tag omitted): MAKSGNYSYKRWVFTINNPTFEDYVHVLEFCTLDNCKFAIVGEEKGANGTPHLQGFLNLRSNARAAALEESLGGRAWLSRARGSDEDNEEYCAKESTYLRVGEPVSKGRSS
# Procedure: (§1)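 A pool of 90-nt single-stranded DNAs with seven random bases just before the constant AC of the nick site (name = the seven bases) was cut by 3 µM recombinant His6-SUMO-tagged Rep nickase domain (300 nM DNA, 50 mM HEPES pH 8.0, 50 mM NaCl, 1 mM MnCl2, 1 h, 37 °C, three replicates). Uncut DNA was amplified and sequenced.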
# [2] = system: T2, Rep nickase domain of banana bunchy top virus
# T2 sequence (protein, residues 1-94, tag omitted): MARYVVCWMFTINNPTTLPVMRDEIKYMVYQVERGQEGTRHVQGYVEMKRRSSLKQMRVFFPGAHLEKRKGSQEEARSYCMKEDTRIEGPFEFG
# Procedure: as §1
# [3] = system: T3, Rep nickase domain of cabbage leaf curl virus
# T3 sequence (protein, residues 1-116, tag omitted): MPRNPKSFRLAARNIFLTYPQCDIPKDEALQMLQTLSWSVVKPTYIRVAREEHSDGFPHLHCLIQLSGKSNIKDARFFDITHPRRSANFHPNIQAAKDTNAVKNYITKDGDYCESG
# Procedure: as §1
# [4] = system: T4, Rep nickase domain of chickpea chlorotic dwarf virus
# T4 sequence (protein, residues 1-124, tag omitted): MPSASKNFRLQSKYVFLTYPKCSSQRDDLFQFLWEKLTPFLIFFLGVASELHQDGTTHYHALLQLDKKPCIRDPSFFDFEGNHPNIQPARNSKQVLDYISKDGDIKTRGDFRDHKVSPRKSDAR
# Procedure: as §1
# [5] = system: T5, Rep nickase domain of faba bean necrotic yellows virus
# T5 sequence (protein, residues 1-98, tag omitted): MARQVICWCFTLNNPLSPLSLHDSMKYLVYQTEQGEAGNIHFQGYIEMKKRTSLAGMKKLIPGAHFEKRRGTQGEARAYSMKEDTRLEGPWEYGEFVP
# Procedure: as §1
# [6] = system: T6, Rep nickase domain of maize striate mosaic virus
# T6 sequence (protein, residues 1-117, tag omitted): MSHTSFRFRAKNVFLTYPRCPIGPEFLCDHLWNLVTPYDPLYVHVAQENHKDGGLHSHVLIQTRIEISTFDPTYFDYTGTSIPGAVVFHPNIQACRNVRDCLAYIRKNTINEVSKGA
# Procedure: as §1
# [7] = system: T7, Rep nickase domain of porcine circovirus 2
# T7 sequence (protein, residues 2-116, tag omitted): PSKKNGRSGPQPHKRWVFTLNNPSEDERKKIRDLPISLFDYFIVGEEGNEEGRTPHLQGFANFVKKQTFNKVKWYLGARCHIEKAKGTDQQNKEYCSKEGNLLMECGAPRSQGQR
# Procedure: as §1
# [8] = system: T8, Rep nickase domain of tomato yellow leaf curl virus
# T8 sequence (protein, residues 1-136, tag omitted): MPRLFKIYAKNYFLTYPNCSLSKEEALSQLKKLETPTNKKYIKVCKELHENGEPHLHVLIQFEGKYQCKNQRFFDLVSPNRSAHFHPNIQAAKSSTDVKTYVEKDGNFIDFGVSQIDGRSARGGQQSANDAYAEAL
# Procedure: as §1
# [9] = system: T9, Rep nickase domain of wheat dwarf virus
# T9 sequence (protein, residues 1-137, tag omitted): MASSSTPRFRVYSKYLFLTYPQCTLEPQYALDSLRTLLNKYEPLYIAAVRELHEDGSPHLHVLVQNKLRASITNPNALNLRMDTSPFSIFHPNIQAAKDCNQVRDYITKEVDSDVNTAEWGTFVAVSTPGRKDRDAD
# Procedure: as §1
Sequence,uncleaved DNA left (log2) [1],uncleaved DNA left (log2) [2],uncleaved DNA left (log2) [3],uncleaved DNA left (log2) [4],uncleaved DNA left (log2) [5],uncleaved DNA left (log2) [6],uncleaved DNA left (log2) [7],uncleaved DNA left (log2) [8],uncleaved DNA left (log2) [9]
GTTCTAG,0.108,0.0563,0.0941,0.245,-0.0331,-0.148,0.129,0.0606,0.0313
GAATTCC,0.0146,0.127,0.0722,0.34,-0.0394,1.67,0.195,0.103,0.0641
ACGGATA,-0.0539,0.00054,-0.0572,0.241,0.0319,0.683,0.178,-0.184,-0.0275
GTCAGTC,0.0169,0.103,0.423,1.07,0.0414,1.48,0.0644,0.0771,0.0863
GATTGAA,-0.281,-0.124,0.0599,0.301,-0.0164,-0.129,-1.2,0.131,0.0678
ATGTAAA,0.0983,0.0966,-0.0154,-0.0875,0.171,-0.389,0.0905,0.0491,0.101
GATTATA,-0.667,-0.205,0.298,-1.08,0.00974,1.18,-0.671,0.0946,0.098
TGGCTGG,0.0349,-0.163,0.103,0.486,-0.0466,0.56,0.0906,-0.0418,-0.0512
CCATTTT,-3.23,-0.161,-0.898,-2.64,0.00337,-1.22,-3.3,0.219,-0.25
GGGAGAG,0.00859,0.0819,0.953,2.09,0.0916,2.22,0.279,0.0316,0.216
GTGAGTC,0.0683,0.072,0.328,0.805,-0.016,1.73,0.162,0.0201,0.00389
TCGATCA,0.0268,-0.00324,0.332,-0.194,0.00749,0.372,-0.0644,0.0736,0.041
CATCAAA,-0.000314,0.0963,0.0787,-0.0709,0.0504,-0.622,0.0612,0.0286,0.0757
GCAGCCT,-0.018,-0.0149,-0.187,-1.31,-0.224,-0.323,-0.189,-0.116,-0.11
TCTGATT,-0.0182,-0.216,-0.0319,-2.08,-0.0348,0.00918,-0.491,-0.205,-0.206
TCTCCAT,0.102,0.0632,0.281,-0.0545,0.0893,0.424,-0.0978,0.0407,0.0148
TGACCCC,0.0717,0.0611,0.732,1.41,0.0673,1.7,0.0578,0.0889,0.173
CACCGCT,-0.102,-0.0342,-0.421,-2.02,0.0611,-1.05,-0.395,-0.0281,-0.0111
GGAGAAG,0.0818,-0.0585,0.252,0.8,-0.0655,0.287,0.0773,-0.0338,0.00841
CTATAGG,0.179,0.143,0.223,1.13,0.0608,0.623,0.231,0.0254,0.156
CAAGTCT,-0.0205,-0.051,-1.97,-3,0.015,-0.791,-0.415,0.00023,-0.358
AGTCAGA,0.118,0.129,0.0827,0.109,0.112,-0.5,-0.081,-0.00555,0.0609
TAACTCA,0.0615,0.127,-1.54,-2.68,0.173,-0.701,-0.0423,0.138,-1.15
ATAGCAA,-0.105,0.0885,-0.167,-0.35,0.081,-1.05,0.0365,0.0483,0.000868
GACACGT,0.0106,0.00891,0.0651,-0.232,-0.0694,-0.398,0.128,0.163,0.109
GGCAATA,0.0133,0.0934,0.667,1.36,-0.00773,1.92,0.137,0.0877,0.155
TTAACCG,-0.218,0.0233,-0.873,-1.14,0.0491,-1.02,0.0255,-0.0334,-0.103
GTCCAGC,0.0464,0.12,0.267,0.753,0.0625,1.07,0.0432,0.105,0.0708
AGTCCTA,0.031,0.00915,0.263,0.0919,-0.0764,0.433,-1.01,-0.0136,0.107
CCGTTTT,-2.38,-0.361,-0.381,-1.87,-0.452,-0.158,-2.83,-0.138,-0.712
